The record followed here is US9803019B2, “Carrier immunoglobulins and uses thereof” (Amgen Inc., priority 2010, dated 2017).

One data set deals with T1, IL-17R (Homo sapiens, UniProt Q96F46).
T1 construct: endogenous in cells; host or cells: human foreskin fibroblasts (HFF)
T1 sequence (Q96F46 33-866): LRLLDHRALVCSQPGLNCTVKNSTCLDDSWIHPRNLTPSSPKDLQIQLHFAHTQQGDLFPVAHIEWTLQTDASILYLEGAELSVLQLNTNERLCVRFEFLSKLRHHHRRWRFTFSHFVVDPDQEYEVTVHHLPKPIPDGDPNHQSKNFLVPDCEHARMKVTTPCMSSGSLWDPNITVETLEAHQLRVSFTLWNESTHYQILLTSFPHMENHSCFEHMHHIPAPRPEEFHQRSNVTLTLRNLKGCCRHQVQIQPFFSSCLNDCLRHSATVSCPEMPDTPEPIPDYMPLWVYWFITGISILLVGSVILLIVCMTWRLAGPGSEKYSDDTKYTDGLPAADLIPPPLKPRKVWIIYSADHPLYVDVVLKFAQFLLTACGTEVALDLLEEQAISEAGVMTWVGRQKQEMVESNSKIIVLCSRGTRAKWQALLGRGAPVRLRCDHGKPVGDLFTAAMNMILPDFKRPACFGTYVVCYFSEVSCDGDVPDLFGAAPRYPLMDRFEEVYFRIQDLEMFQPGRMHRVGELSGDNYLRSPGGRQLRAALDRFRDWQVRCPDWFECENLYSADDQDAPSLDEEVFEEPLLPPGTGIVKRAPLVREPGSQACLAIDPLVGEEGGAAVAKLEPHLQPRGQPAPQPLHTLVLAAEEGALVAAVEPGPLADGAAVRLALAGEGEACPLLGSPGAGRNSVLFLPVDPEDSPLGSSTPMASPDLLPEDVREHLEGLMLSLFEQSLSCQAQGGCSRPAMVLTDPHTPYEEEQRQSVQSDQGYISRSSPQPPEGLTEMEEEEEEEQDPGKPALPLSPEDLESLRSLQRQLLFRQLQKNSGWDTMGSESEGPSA
Kind of data set: Cell based activity assay: IL-17-induced GRO-α release from human foreskin fibroblasts (sandwich ELISA). The note with it: HFF, 5 ng/ml IL-17; 0.1, 1 and 10 μM antibody (FIG. 3). The protocol:
The conditioned cell medium was then assessed for GRO-α levels using a GRO-α sandwich ELISA.
Interaction of IL-17 with the IL-17R on cells induces the production of various factors, including growth-related oncogene alpha (GRO-α), from these cells. A cell-based characterization assay was developed to measure GRO-α released using sandwich ELISA. In this ELISA, a GRO-α capture antibody is utilized to bind GRO-α, and then a biotinylated GRO-α detection antibody is used to detect the captured protein. Streptavidin conjugated to horseradish peroxidise (HRP) is then added to detect the amount of biotinylated GRO-α detection antibody bound. The amount of HRP bound is measured by evaluation of absorbance at 450 nm. An increase in absorbance at 450 nm is indicative of an increase in the amount of GRO-α produced. In this assay, human foreskin fibroblasts (HFF) are incubated with 5 ng/ml IL-17 and 0.1 μM, 1 μM and 10 μM of antibody samples. The conditioned cell medium is then harvested and processed for assessment of GRO-α levels using a GRO-α sandwich ELISA.
A general note: ELISA stands for enzyme-linked immunosorbent assay.

The nature of data set [1]: Rat PK, single SC dose (Example 4). The note with it: 5 mg/kg subcutaneously. The format is in vivo, Sprague-Dawley rats. The protocol: Serum concentrations were then determined using an anti-human Fc based ELISA.
The pharmacokinetic profile of the 16435, 16444, 4241, and 4341 carrier antibodies was determined in adult Sprague-Dawley rats (8-12 weeks old) by injecting 5 mg/kg subcutaneously and collecting approximately 250 μL of blood in Microtainer® serum separator tubes at 0, 0.25, 1, 4, 24, 48, 72, 96, 168, 336, 504, 672, 840 and 1008 hours post-dose from the lateral tail vein. Each sample was maintained at room temperature following collection, and following a 30-40 minute clotting period, samples were centrifuged at 2-8° C. at 11,500 rpm for about 10 minutes using a calibrated Eppendorf 5417R Centrifuge System (Brinkmann Instruments, Inc., Westbury, N.Y.). The collected serum was then transferred into a pre-labeled (for each rat), cryogenic storage tube and stored at −60° C. to −80° C. for future analysis. To measure the serum sample concentrations from the PK study samples, the following method was used: ½ area black plate (Corning 3694) was coated with 2 μg/ml of anti-hu Fc, antibody 1.35.1 in PBS and then incubated overnight at 4° C. The plate was then washed and blocked with I-Block™ (Applied Biosystems) overnight at 4° C. […] The plate was washed, then 50 μl of Pico substrate were added, after which the plate was immediately analyzed with a luminometer.

Data set [2] can be described thus: Cynomolgus PK, sequential SC doses (Example 10). The format is in vivo, cynomolgus monkeys. The protocol:
The pharmacokinetic profiles of the 16435 and 4341 antibodies were also determined in cynomolgus monkeys (n=2 per group) by injecting of two subsequent subcutaneous doses of 1 mg/kg at day 0 and 5 mg/kg at day 57. Serum samples were collected at pre-dose, 0.5, 2, 4, 8, 12, 24, 48, 96, 168, 336, 504, 672, 840, 1008, 1176, 1344 (prior to second dose) hours post 1st dose at 1 mg/kg and 0.5, 2, 4, 8, 12, 24, 48, 96, 168, 336, 360, 384, 432, 504, 672, 840, 1008, 1176, 1344 following post 2nd dose at 5 mg/kg. The samples were assayed for the 16435 and 4341 antibody levels by using an anti-IgG sandwich ELISA as described above. Time concentration data were analyzed using non-compartmental methods with WinNonLin®. […] If there had been a significant immune response causing abnormal antibody clearance, it would have been expected after the second dose, due to immune system priming by the first dose.

B1: 16435 (antibody)
heavy: MEWTWRVLFLVAAATGAHSQVQLVQSGAEVKKPGASVKVSCKASGYTFTRYGISWVRQAPGQGLEWMGWISTYSGNTNYAQKLQGRVTMTTDTSTSTAYMELRSLRSDDTAVYYCARAQLYFDYWGQGTLVTVSSASTKGPSVFPLAPCSRSTSESTAALGCLVKDYFPEPVTVSWNSGALTSGVHTFPAVLQSSGLYSLSSVVTVPSSNFGTQTYTCNVDHKPSNTKVDKTVERKCCVECPPCPAPPVAGPSVFLFPPKPKDTLMISRTPEVTCVVVDVSHEDPEVQFNWYVDGVEVHNAKTKPREEQFNSTFRVVSVLTVVHQDWLNGKEYKCKVSNKGLPAPIEKTISKTKGQPREPQVYTLPPSREEMTKNQVSLTCLVKGFYPSDIAVEWESNGQPENNYKTTPPMLDSDGSFFLYSKLTVDKSRWQQGNVFSCSVMHEALHNHYTQKSLSLSPGK
light: EIVMTQSPATLSVSPGERATLSCRASQSVSSNLAWFQQKPGQAPRLLIYDASTRATGVPARFSGSGSGTEFTLTISSLQSEDFAVYYCQQYDNWPLTFGGGTKVEIKRTVAAPSVFIFPPSDEQLKSGTASVVCLLNNFYPREAKVQWKVDNALQSGNSQESVTEQDSKDSTYSLSSTLTLSKADYEKHKVYACEVTHQGLSSPVTKSFNRGEC
modifications: 16435 (LC: P66L, D90E)
As to B1, in the data set with IL-17R, the “blocking activity on IL-17-induced GRO-α production” value is “no significant blocking activity”. In addition, the “AUC0-t±SD” value in data set [1] is 18,492±2,104 μg/h/mL. Further, the “change in clearance mediated by an immune response after multiple dosing” value in data set [2] (1 mg/kg day 0 then 5 mg/kg day 57 SC (FIG. 44)) is “no indication of a significant change in the clearance mediated by an immune response”. In addition, the half life entry in data set [2] (SC) is given as “about 12 days”. Besides, in data set [2] (SC 5 mg/kg), the AUC0-inf is given as 31,230,285 ng · h/mL; the AUC0-t was 29,924,604 ng · h/mL; the CL/F (as a rule, clearance divided by bioavailability, as obtained after extravascular dosing) came to 3.86 mL/day/kg; the Cmax was 58,682 ng/mL. Further, in data set [2] (SC 5 mg/kg), the MRT (usually the average time that molecules of a dose stay in the body) was found to be 18.8 days and the Tmax (as a rule, the time at which the peak concentration occurs) stood at 4 days. The T1/2 in data set [2] (SC 5 mg/kg (second dose, day 57, after 1 mg/kg at day 0)) was found to be 11.9 days.

B2: 16444 (antibody)
heavy: MEWTWRVLFLVAAATGAHSQVQLVQSGAEVKKPGASVKVSCKASGYTFTRYGISWVRQAPGQGLEWMGWISTYSGNTNYAQKLQGRVTMTTDTSTSTAYMELRSLRSDDTAVYYCARAQQYFDYWGQGTLVTVSSASTKGPSVFPLAPCSRSTSESTAALGCLVKDYFPEPVTVSWNSGALTSGVHTFPAVLQSSGLYSLSSVVTVPSSNFGTQTYTCNVDHKPSNTKVDKTVERKCCVECPPCPAPPVAGPSVFLFPPKPKDTLMISRTPEVTCVVVDVSHEDPEVQFNWYVDGVEVHNAKTKPREEQFNSTFRVVSVLTVVHQDWLNGKEYKCKVSNKGLPAPIEKTISKTKGQPREPQVYTLPPSREEMTKNQVSLTCLVKGFYPSDIAVEWESNGQPENNYKTTPPMLDSDGSFFLYSKLTVDKSRWQQGNVFSCSVMHEALHNHYTQKSLSLSPGK
light: EIVMTQSPATLSVSPGERATLSCRASQSVSSNLAWFQQKPGQAPRLLIYDASTRATGVPARFSGSGSGTEFTLTISSLQSEDFAVYYCQQYDNAPLTFGGGTKVEIKRTVAAPSVFIFPPSDEQLKSGTASVVCLLNNFYPREAKVQWKVDNALQSGNSQESVTEQDSKDSTYSLSSTLTLSKADYEKHKVYACEVTHQGLSSPVTKSFNRGEC
modifications: 16444 (LC: P66L, D90E, W114A)
For the molecule B2, the “blocking activity on IL-17-induced GRO-α production” value in the data set with IL-17R is “no significant blocking activity”. The “AUC0-t±SD” value in data set [1] was 21,021±2,832 μg/h/mL.
